# Source: the supplement of paper PMC3334620
# Over roughly 33,000 sequences, “E-score (-0.5 to 0.5)” has its median near -0.054; the highest 2% begin near 0.35. The list shows a part of the results.
# Target: T1, Stb5 (UniProt P38699)
# T1 sequence: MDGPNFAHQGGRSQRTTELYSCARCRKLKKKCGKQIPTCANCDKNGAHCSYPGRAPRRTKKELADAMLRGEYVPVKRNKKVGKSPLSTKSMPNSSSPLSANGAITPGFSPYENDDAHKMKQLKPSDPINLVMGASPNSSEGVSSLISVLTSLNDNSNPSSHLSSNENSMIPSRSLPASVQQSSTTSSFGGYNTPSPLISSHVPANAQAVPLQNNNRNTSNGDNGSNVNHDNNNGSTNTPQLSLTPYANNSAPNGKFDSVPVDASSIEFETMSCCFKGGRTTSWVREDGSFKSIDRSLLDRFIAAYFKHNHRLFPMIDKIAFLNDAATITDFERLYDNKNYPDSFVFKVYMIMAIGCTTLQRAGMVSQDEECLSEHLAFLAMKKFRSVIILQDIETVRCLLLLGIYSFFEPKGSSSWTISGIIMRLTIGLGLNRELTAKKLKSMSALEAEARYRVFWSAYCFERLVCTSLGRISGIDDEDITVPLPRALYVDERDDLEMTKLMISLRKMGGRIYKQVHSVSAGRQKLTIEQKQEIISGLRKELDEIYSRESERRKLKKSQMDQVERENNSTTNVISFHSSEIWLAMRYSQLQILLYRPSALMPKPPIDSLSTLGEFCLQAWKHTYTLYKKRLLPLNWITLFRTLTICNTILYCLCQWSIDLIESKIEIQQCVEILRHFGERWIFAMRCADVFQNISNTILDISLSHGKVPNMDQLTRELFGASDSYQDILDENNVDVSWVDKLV
# Test: PBM E-score (8-mer binding enrichment) (E-score (-0.5 to 0.5)); higher = stronger / more preferred TF binding; most listed sequences are background and not binding sites
# Conditions: protein concentration: 200 nM; construct: GST-full length
# Outline: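 E-scores (a modified Wilcoxon-Mann-Whitney statistic) were assigned by the Universal PBM Analysis Suite to every ungapped eight-base word pooled with its reverse complement. The input came from universal all-10-mer Agilent arrays made double-stranded by primer extension and probed with GST-tagged yeast transcription factors at about 100-200 nM. Fluorescent anti-GST detected bound protein, and masliner normalised the scans.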
row,Sequence,PBM E-score
1,TGTGAAAA,-0.163
2,AAGGAACT,-0.0459
3,ACATATAG,0.0859
4,CTCCACCC,-0.148
5,GATAGATA,0.0126
6,GATCAGGA,-0.26
7,ACAGGACT,-0.0874
8,AAGATGGT,-0.135
9,ACGTAAAG,-0.0611
10,CCTCTGCG,-0.193
11,AGTATTGA,-0.238
12,AAACGACA,-0.183
13,GCGAGAGA,-0.16
14,CGTTAGAG,-0.00857
15,ATGTGGTA,-0.222
16,ACCTCCAC,0.0725
17,GAGGACAC,0.0562
18,ACTGATCT,-0.232
19,ACATGCGA,-0.0766
20,GCGGCAAC,0.107
21,GCTATCCA,-0.126
22,TCGTCAGA,0.0517

row,Sequence,PBM E-score
1,GGCGAGGA,-0.212
2,AGGATAGG,0.0311
3,GAGTTATA,0.14
4,CCCTTTTA,-0.2
5,CGGACTAG,0.195
6,GCCATACC,0.0141
7,CATCGCCG,0.264
8,ACCCCTTC,-0.0875
9,CCACCGGC,0.322
10,GATTTTGC,-0.18
11,GCGACACC,0.161
12,CGTCTTTA,0.0276
13,CCCTTGCC,-0.194
14,ATTCTTAA,-0.122
15,CCGGGAAC,0.199
16,ATCGGGTC,0.224
17,CAGCACTC,-0.063
18,GGACTGCC,-0.114
19,ATTAGCAC,0.114
20,CCGACCGA,0.314
21,CTACCCCC,0.169
22,GAGCCGCA,-0.0194

row,Sequence,PBM E-score
1,AGGTACCG,0.284
2,CGAATTGC,0.0158
3,GGACTATA,0.256
4,GAATCTGC,0.0388
5,TCGCGGAA,0.0959
6,AAGTAGCC,-0.125
7,GACGTGGA,-0.0377
8,GCGAATTA,0.0761
9,AGAGAGAC,-0.241
10,AACATTTC,-0.226
11,GAGCTTGC,-0.0925
12,ACAATTGG,-0.222
13,CCGACTCC,0.314
14,CTTGCGTC,-0.109
15,TAAAAGGA,-0.149
16,GGTAATCA,0.216
17,AGTTTACA,0.00132
18,AGCTACAG,-0.215
19,AAATCCAT,-0.0752
20,ATGTGAAT,-0.138
21,CCAAGCGC,0.129
22,AAAGAAGC,0.0555

row,Sequence,PBM E-score
1,CCTCCTTC,-0.213
2,ACAGCGCA,0.118
3,ATACGGAT,0.174
4,ATCCGGCG,0.298
5,AAGATGTA,-0.243
6,CATAATTA,-0.125
7,CTCCGAGC,0.102
8,ACGGGTTC,0.0737
9,ACCCTAAT,-0.303
10,GGCTCTAC,0.116
11,TAAGACAA,0.0611
12,GCAACCAA,-0.0357
13,CTTCCCAC,-0.0125
14,ATCGACGG,0.292
15,TCAACGCA,-0.189
16,GACCCTCC,-0.006
17,AGAACTAA,0.0894
18,GGAACACC,0.14
19,GACGGTGA,0.325
20,CCATTCGA,-0.0555
